Several values for one entry are separate records, joined by “and”; a condition that tells them apart may be missing. Equal values may be shown once. In all, about 420,000 compounds went through this assay and about 75 (0.02%) were called active. The inconclusive results got no clear call from the source; some entries with a clear call stand among them for comparison. Calls come from the whole dose curve; as a rule, active = well fitted activation curve with a large enough effect; inconclusive = small, poorly fitted or top-dose-only effect; inactive = no such curve, though single readings can be large or run the other way. A potency beside an inconclusive call is a rough fit, not a confirmed value.
Assay: qHTS for Inducers of the Endoplasmic Reticulum Stress Response (ERSR) in Human Glioma: qHTS; note: nearly all actives have a fitted effect of over 35% in size; for activation: % of control where 0% means no effect
Conditions: U87-MG GRP78 promoter luciferase reporter, 16 h; activation: active compounds read high
Method in brief: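 Stably transfected U87-MG glioma cells carrying a GRP78-based luciferase sensor; 16 h compound incubation. Luminescence end-point read 10 min after Bright-Glo addition at room temperature.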
Potency is the fitted concentration of half-maximal effect; tags give direction and shape of the fitted curve.

Potency, active:
O=C(NCCN1CCOCC1)c1cc(-c2cccs2)on1 11.2 µM

Potency, inconclusive:
COc1cc(/C=C2\SC(=Nc3ccccc3)N(Cc3ccco3)C2=O)ccc1OC(C)C(=O)O (centres undefined) 15.8 µM [activator, full curve, poor fit]
CC(C)c1ccc(NC(=O)C2CSC3(C)CCC(=O)N23)cc1 (centres undefined) 22.4 µM [activator, single point]
CCCCS/C(N)=N/N=C/c1cc(C)ccc1O 28.2 µM [activator, full curve, poor fit]
O=C(C#Cc1ccccc1)Nc1cccc(F)c1 14.1 µM [activator, single point]
COC(=O)CSc1ccc(S(=O)(=O)N2CCOCC2)cc1[N+](=O)[O-] 50.1 µM [activator, single point]
CCOc1ccccc1N(C)C(=O)c1c2c(nc3ccccc13)C(=O)N(C1CCCCC1)C2 28.2 µM [activator, single point]
CC(C)Cc1ccc(C(C)C(=O)Nc2ccc(O)cc2)cc1 (centres undefined) 44.7 µM [activator, single point]
O=C(Nc1ccc(S(=O)(=O)Nc2nccs2)cc1)c1cnc(Cl)c(Cl)c1 50.1 µM [activator, single point]
Cc1sc2nc3c(SC(C)C(=O)O)cc(C(=O)c4ccccc4O)cn3c(=O)c2c1C (centres undefined) 63.1 µM [activator, single point]
C=CCOC(=O)c1sc(NC(=O)c2ccco2)nc1C 1.58 µM [activator, partial curve, poor fit]
S=C(Nc1ccc(Cl)cc1Cl)N1CCCC1 10 µM [activator, single point]
Cc1ccnc(NC(=O)CSc2cc(=O)n(C)c3ccccc23)c1 11.2 µM [activator, partial curve, poor fit]
CC(C)(C)NC(=O)CSC(=Nc1cccc(F)c1)NC#N 44.7 µM [activator, partial curve, poor fit]
Cc1ccc(S(=O)(=O)/C=C/C#N)cc1 2.93 µM [activator, single point]
O=C1[C@@H]2Cc3c([nH]c4ccccc34)CN2C(=O)CN1CCCCCO 10 µM [activator, single point]
Cc1cc(CCNC=O)c(C)c2c1oc1ccccc12 11.2 µM [activator, single point]
CCCOC(=O)CSc1nnc(-c2cc(OC)c(OC)c(OC)c2)o1 10 µM [activator, partial curve, poor fit]
COc1ccc(CNC(=O)CNS(=O)(=O)c2cccc(C#N)c2)cc1OC 50.1 µM [activator, single point]
Cc1ccc(-c2ccccc2NC(=O)CCl)o1 44.7 µM [activator, partial curve, poor fit]
Cn1cccc1C(=O)N1CCC2(CCCN(c3cccc(-c4ccccc4)c3)C2)CC1 50.1 µM [activator, single point]
CC(=O)c1c(OC(=O)c2ccccc2)ccnc1C(F)(F)F 63.1 µM [activator, single point]

activation, inactive:
COCCNC(=O)C1CCCN(C(=O)c2cc(C(C)(C)C)nn2C)CC1 (centres undefined) -0.67%
COc1ccc(NC(=O)CC2CCCC2)cc1OC -5.21%
CC(=O)c1ccc(NC(=O)CCNS(=O)(=O)c2cccc3nonc23)cc1 -2.36%
COC(=O)c1ccccc1N1C(=O)C2C(C1=O)[C@H]1C=C[C@@H]2C1 (some centres undefined) -2.77%
CCC(=O)O[C@@H](OP(=O)(CCCCc1ccccc1)CC(=O)N1C[C@H](C2CCCCC2)C[C@H]1C(=O)O)C(C)C (some centres undefined) -4.1%
CCCCCCCCCCCCN1C/C(=C\C(=O)OCC)c2cc(C(F)(F)F)ccc2S1(=O)=O -1.59% and 5.36%
Cc1ccc(Cn2ccc(=O)c(OCc3c(Cl)cccc3Cl)c2C)cc1 -0.523%
On1onc2c3cc(-c4ccccc4)nc3ccc21 0.648%
COc1ccc(OC)c(NC(=O)COC(=O)c2ccc(S(=O)(=O)N3CCCCC3)cc2)c1 -2.07%
COc1ccc(O)c(C(=O)c2cnn(-c3ccccn3)c2)c1 11%
COc1ccc(C2NC(=O)C(C#N)=C(S)N2c2ccccc2)cc1OC (centres undefined) 2.05%
COc1ccccc1-c1ccc(C(=O)N(C)C(C)c2ccon2)c(N2CCN(c3ccccc3F)CC2)n1 (centres undefined) -4.71%
COc1ccc(S(=O)(=O)N(CC(=O)NCCSCc2ccccc2)c2ccc(C)cc2)cc1 -3.5%
CCc1nc2ccccc2[nH]c1=O -5.49%
C=CCn1c(COc2ccc(F)cc2)nnc1SCC(=O)NC(=O)NCc1ccco1 -1.81%
CCn1cc(C(=O)OCC(=O)c2cc(C)n(-c3ccc(OC(F)F)cc3)c2C)c(=O)c2ccc(C)nc21 0.532%
O=C(CCCSc1nc2ccccc2[nH]1)N1CCN(c2ccc([N+](=O)[O-])cc2)CC1 -3.17%

Source: PubChem BioAssay AID602332 (National Center for Advancing Translational Sciences (NCATS), 2012)
